About 220 (0.56%) of roughly 39,000 compounds showed activity. The list shows a part of the results.
tested on: Escherichia coli K-12 BW25113; test: relative growth (OD600 normalised to plate interquartile mean) (fraction); higher = less growth inhibition, active = 0.2 or less; conditions: 50 µM; LB; incubation time: overnight (16-24 h)
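Also: static incubation at 37 °C against the wild-type strain, values averaged over two biological replicates.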

Structure (SMILES) | relative growth
COc1cc(OC)cc(C(=O)OCCCN2CCN(CCCOC(=O)c3cc(OC)cc(OC)c3)CC2)c1 | inactive: 1.03
COc1ccc(C#Cc2ccc([C@H]3[C@@H](CO)N4CCCCN(S(=O)(=O)c5cn(C)cn5)C[C@H]34)cc2)cc1 | inactive: 0.961
COc1ccc(-c2cc(=O)c3c(O)c(OC)c(OC)c(OC)c3o2)cc1OC | inactive: 1.11
CCCCCCCCCCCCCCCCCCOC[C@H](COP(=O)(O)O[C@H]1[C@@H](O)[C@@H](O)[C@@H](O)C[C@@H]1OC)OC | inactive: 0.807
C[C@H](CO)N1C[C@H](C)[C@H](CN(C)CC2CCCCC2)Oc2ccc(NC(=O)CCCCCC(=O)Nc3ccccc3N)cc2CC1=O | inactive: 0.978
C[C@@H]1CN([C@@H](C)CO)C(=O)c2cc(NC(=O)Nc3ccc4c(c3)OCO4)ccc2O[C@@H](C)CCCCO[C@H]1CN(C)C(=O)C1CCCCC1 | inactive: 0.965
O=C(C[C@@H]1CC[C@@H]2[C@H](COC[C@H](O)CN2C(=O)c2ccncc2)O1)NCc1ccc(-c2ccccc2)cc1 | inactive: 0.917
CCCNC(=O)N1C[C@@H](O)COC[C@@H]2O[C@@H](CC(=O)NCc3ccncn3)CC[C@H]21 | inactive: 0.989
NNC(=O)C1CCCC1 | inactive: 0.998
CCO[C@H]1OC(C(=O)N2CCOCC2)=C[C@@H](c2ccccc2)[C@@H]1CCCOC(=O)NCCCCCC(=O)NO | inactive: 0.983
Cc1cc(C(=O)Nc2cccc3c2O[C@H](CN(C)C(=O)NC2CCCCC2)[C@H](C)CN([C@H](C)CO)C3=O)n(C)n1 | inactive: 1
C[C@@H]1CCCCO[C@@H](CN(C)S(=O)(=O)c2cn(C)cn2)[C@@H](C)CN([C@H](C)CO)C(=O)c2cc(NC(=O)c3ccncc3)ccc2O1 | inactive: 1.02
COc1ccc(CN(C)C[C@@H]2Oc3ccc(NC(=O)CCCN(C)C)cc3C(=O)N([C@@H](C)CO)C[C@H]2C)cc1 | inactive: 1.01
O=P(O)(O)C(Sc1ccc(Cl)cc1)P(=O)(O)O | inactive: 0.973
C[C@@H]1CN([C@H](C)CO)C(=O)c2cc(NC(=O)Nc3cccc4ccccc34)ccc2O[C@H]1CN(C)S(=O)(=O)c1ccccc1 | inactive: 1.02
COc1ccc(-c2ccccn2)cc1 | inactive: 0.987
Cc1noc(C)c1S(=O)(=O)N(C)C[C@@H]1OCCCC[C@@H](C)Oc2ccc(NC(=O)Nc3ccc(C(F)(F)F)cc3)cc2C(=O)N([C@H](C)CO)C[C@H]1C | inactive: 0.998
C[C@H](CO)N1C[C@H](C)[C@H](CN(C)C(=O)Nc2ccc(C(F)(F)F)cc2)Oc2ccc(NC(=O)Cc3ccccc3)cc2CC1=O | inactive: 0.985
C[C@H](O)C#Cc1cnc2c(c1)C(=O)N([C@@H](C)CO)C[C@H](C)[C@@H](CN(C)C(=O)CN1CCOCC1)O2 | inactive: 0.985
CC1=CC(=O)c2ccccc2C1=O | inactive: 0.786
C[C@@H]1CN([C@@H](C)CO)C(=O)c2cc(NC(=O)c3ccncc3)ccc2O[C@@H](C)CCCCO[C@@H]1CN(C)CC1CCCCC1 | inactive: 1
C[C@@H]1CN([C@H](C)CO)C(=O)CCCn2nncc2CO[C@@H]1CN(C)S(=O)(=O)c1cccc(C#N)c1 | inactive: 1

Structure (SMILES) | relative growth
O=C(C[C@@H]1CC[C@@H](NC(=O)CN2CCOCC2)[C@H](CO)O1)NCCc1ccccc1 | inactive: 0.994
Cc1ccc(S(=O)(=O)Nc2ccc3c(c2)C(=O)N([C@H](C)CO)C[C@@H](C)[C@@H](CN(C)S(=O)(=O)c2ccc(F)cc2)OCCCC[C@@H](C)O3)cc1 | inactive: 1.01
C[C@H](CO)N1C[C@H](C)[C@@H](CN(C)Cc2ccc(C(=O)O)cc2)OCCCC[C@H](C)Oc2ccc(NC(=O)Cc3ccccc3)cc2C1=O | inactive: 0.978
COc1ccccc1CNC(=O)C[C@@H]1C[C@H]2c3cc(NS(=O)(=O)c4ccc(F)cc4)ccc3O[C@H]2[C@H](CO)O1 | inactive: 0.83
C[C@@H]1CN([C@@H](C)CO)S(=O)(=O)c2ccc(C#CCC3CCCC3)cc2O[C@H]1CN(C)C(=O)c1cnccn1 | inactive: 1.04
COc1ccc(NC(=O)N(C)C[C@@H]2Oc3ccc(NC(=O)CCCCCC(=O)Nc4ccccc4N)cc3C(=O)N([C@H](C)CO)C[C@H]2C)cc1 | inactive: 0.982
C[C@H](CO)N1C[C@H](C)[C@@H](CN(C)Cc2ccc(Oc3ccccc3)cc2)Oc2ccc(NC(=O)C3CC3)cc2CC1=O | inactive: 0.977
O=C(C[C@@H]1CC[C@@H]2[C@H](COC[C@H](O)CN2S(=O)(=O)c2ccc(F)cc2)O1)N1CCc2ccccc2C1 | inactive: 0.997
C[C@@H]1CN([C@H](C)CO)S(=O)(=O)c2ccc(C#Cc3ccccc3)cc2O[C@H]1CN(C)S(=O)(=O)c1ccccc1F | inactive: 1.03
COc1ccc(NC(=O)N(C)C[C@@H]2OCCCC[C@H](C)Oc3ccc(NS(=O)(=O)c4ccc(Cl)cc4)cc3C(=O)N([C@H](C)CO)C[C@H]2C)cc1 | inactive: 1.01
NCCCc1ccc2c(c1)OCO2 | inactive: 0.913
O=C(CN1CCOCC1)NCC[C@H]1CC[C@H](NC(=O)c2ccc3c(c2)OCO3)[C@H](CO)O1 | inactive: 1.03
C[C@@H]1CCCCO[C@@H](CN(C)C(=O)Nc2ccc3c(c2)OCO3)[C@@H](C)CN([C@@H](C)CO)C(=O)c2cc(NC(=O)Nc3cccc4ccccc34)ccc2O1 | inactive: 1.04
Cn1cnc(S(=O)(=O)N[C@@H]2CC[C@H](CC(=O)N3CCN(c4ccccc4)CC3)O[C@H]2CO)c1 | inactive: 1.01
Cc1noc(C)c1NC(=O)Nc1ccc2c(c1)C(=O)N([C@H](C)CO)C[C@H](C)[C@H](CN(C)S(=O)(=O)c1cccs1)OCCCC[C@H](C)O2 | inactive: 1.02
C[C@@H](O)CN1CCN(S(=O)(=O)C2CC2)CC1 | inactive: 0.977
CCCC(=O)Nc1ccc2c(c1)OC[C@@H](C)N(S(=O)(=O)c1cn(C)cn1)C[C@H](C)[C@@H](OC)CN(C)C2=O | inactive: 0.968
CC(C)[C@H](NC(=O)[C@H](CC(=O)O)NC(=O)[C@H](CCCCN)NC(=O)[C@@H](N)CCCNC(=N)N)C(=O)N[C@@H](Cc1ccc(O)cc1)C(=O)O | inactive: 1
C[C@@H]1CN([C@H](C)CO)C(=O)c2cc(NC(=O)c3ccncc3)ccc2O[C@H]1CN(C)S(=O)(=O)c1cccs1 | inactive: 1.01
C=CC(C)(O)CCC1C(C)(O)CCC2C(C)(C)CCCC21C (centres undefined) | inactive: 0.953
CO[C@@H]1CN(C)C(=O)c2cc(NS(=O)(=O)c3cn(C)cn3)ccc2OC[C@H](C)N(CC2CC2)C[C@@H]1C | inactive: 1.03
O=C(O)CCC(=O)O | inactive: 0.976

Structure (SMILES) | relative growth
Cc1noc(C)c1NC(=O)N(C)C[C@@H]1OCCCC[C@H](C)Oc2ccc(NC(=O)C3CCCCC3)cc2C(=O)N([C@@H](C)CO)C[C@H]1C | inactive: 0.983
C[C@H](CO)N1C[C@H](C)[C@@H](CN(C)Cc2ccc3c(c2)OCO3)OCCCC[C@H](C)Oc2ccc(NC(=O)NC3CCCCC3)cc2C1=O | inactive: 0.995
CCCCOC(=O)c1ccc(O)cc1 | inactive: 1.05
C[C@@H]1CCCCO[C@@H](CN(C)C(=O)c2ccccc2)[C@@H](C)CN([C@@H](C)CO)C(=O)c2cc(NS(=O)(=O)c3cccs3)ccc2O1 | inactive: 1.01
C[C@@H]1CCCCO[C@H](CN(C)C(=O)c2ccccc2)[C@@H](C)CN([C@@H](C)CO)C(=O)c2cc(NC(=O)Nc3ccc4c(c3)OCO4)ccc2O1 | inactive: 1.01
C[C@@H]1CN([C@@H](C)CO)C(=O)c2c(c3ccccc3n2C)-c2ccccc2CO[C@H]1CN(C)Cc1ccc2c(c1)OCCN2C | inactive: 0.998
Cc1c2c(nn1C)CSCc1cc(n(C)n1)CSc1cc(c3ccccc3c1)OCCCc1c(C(=O)O)n(C)c3c-2c(Cl)ccc13 | inactive: 1.01
CC(=O)OCC[N+](C)(C)C.[Cl-] | inactive: 1.18
C[C@@H]1CN([C@H](C)CO)C(=O)c2cc(NC(=O)NC3CCCCC3)ccc2O[C@@H](C)CCCCO[C@H]1CN(C)C(=O)Nc1ccc(C(F)(F)F)cc1 | inactive: 1.02
C[C@H](CO)N1C[C@H](C)[C@H](CN(C)C(=O)Nc2ccc(C(F)(F)F)cc2)Oc2c(NC(=O)CCCCCC(=O)Nc3ccccc3N)cccc2C1=O | inactive: 0.994
COC[C@@H]1CN(C(=O)c2cscn2)N1C | inactive: 0.996
C[C@H](CO)N1C[C@H](C)[C@@H](CN(C)C(=O)C2CC2)OCc2cn(nn2)CCCC1=O | inactive: 1.03
C[C@H]1CCc2cc(F)ccc2N1 | inactive: 0.985
COc1ccc(CN2C[C@H](C)[C@@H](OC)CN(C)C(=O)c3ccc(NC(=O)c4nc5ccccc5s4)cc3OC[C@@H]2C)cc1 | inactive: 0.993
CCS(=O)(=O)N[C@H]1C=C[C@@H](CC(=O)NCc2ccc(Cl)cc2)O[C@@H]1CO | inactive: 1
Cc1ccc(S(=O)(=O)Nc2ccc3c(c2)CC(=O)N([C@@H](C)CO)C[C@@H](C)[C@@H](CN(C)S(=O)(=O)c2ccc(F)cc2)O3)cc1 | inactive: 0.885
COc1ccc2c3c([nH]c2c1)[C@@H](CO)N(Cc1nccs1)C[C@]13CCN(CC1)C(=O)C1CCOCC1 | inactive: 1.03
CC(C)NC(=O)Nc1ccc2c(c1)CC(=O)N([C@@H](C)CO)C[C@@H](C)[C@@H](CN(C)Cc1ccc(C(=O)O)cc1)O2 | inactive: 1.01
Cc1ncc(COP(=O)(O)O)c(C=O)c1O | inactive: 1.03
COc1ccc(S(=O)(=O)Nc2ccc3c(c2)[C@H]2C[C@H](CC(=O)NCC4CC4)O[C@@H](CO)[C@H]2O3)cc1 | inactive: 0.977

Source: the supplement of paper PMC9446081
